Reference: PubChem BioAssay AID360 (National Center for Advancing Translational Sciences (NCATS), 2006)
In all, about 48,000 compounds went through this assay and about 550 (1.1%) were called active. Roughly 4% stayed inconclusive and do not appear here. Rule as the data show it: active = potency below about 15 µM; inconclusive = mostly about 16 µM to 33 µM; inactive = weaker than that. The list shows a part of the results.

biological target: Lysosomal acid glucosylceramidase (Homo sapiens) (UniProt P04062); test: Glucocerebrosidase; settings: purified enzyme, resorufin glucoside fluorescence (screen aimed at inhibitors), 20 min;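 also: the screen sought inhibitors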
Summary of the method: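 Wild-type enzyme at 0.2 nM final in 50mM citric acid/KH2PO4, 10mM sodium taurocholate, 0.01% tween-20, pH 5.9, with resorufin beta-D-glucopyranoside at 30 uM final. Compounds titrated, 20 min at RT, red fluorescence read; AC50 from titration.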
Potency is read from the fitted curve at half-maximal effect.

Sequence of UniProt P04062 (P04062 whole entry, looked up): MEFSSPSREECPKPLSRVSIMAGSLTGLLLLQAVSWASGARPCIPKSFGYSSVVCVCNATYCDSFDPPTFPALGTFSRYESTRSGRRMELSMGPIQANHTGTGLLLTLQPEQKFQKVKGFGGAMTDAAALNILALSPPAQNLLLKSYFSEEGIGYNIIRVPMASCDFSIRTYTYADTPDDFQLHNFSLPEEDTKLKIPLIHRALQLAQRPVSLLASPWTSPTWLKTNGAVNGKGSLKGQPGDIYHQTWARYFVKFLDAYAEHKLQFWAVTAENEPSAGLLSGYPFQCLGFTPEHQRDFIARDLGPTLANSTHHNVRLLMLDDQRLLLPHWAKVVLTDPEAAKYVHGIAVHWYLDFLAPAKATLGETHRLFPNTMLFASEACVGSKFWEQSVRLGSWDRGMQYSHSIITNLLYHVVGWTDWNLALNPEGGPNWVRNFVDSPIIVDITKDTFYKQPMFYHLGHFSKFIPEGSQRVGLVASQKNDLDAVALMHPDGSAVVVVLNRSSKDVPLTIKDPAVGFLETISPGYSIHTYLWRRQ

| Structure (SMILES) | Potency |
| --- | --- |
| O=c1[nH]c(CS(=O)(=O)c2ccccc2)nc2ccccc12 | inactive: > 76.9 µM |
| Cc1cccc(N2CCN(C(=O)c3ccc(N4CCCC4=O)cc3)CC2)c1C | inactive: > 76.9 µM |
| Cc1c(C(=O)O)oc2ccc(S(=O)(=O)N3CCC(C)CC3)cc12 | inactive: > 76.9 µM |
| CC(C)C(NC(=O)c1ccc(S(=O)(=O)N2CCOCC2)cc1)c1nc2ccccc2[nH]1 (stereo not drawn) | inactive: > 76.9 µM |
| CCOCCCNc1ncnc2c1[nH]c1ccccc12 | inactive: > 76.9 µM |
| CCOC(=O)c1ccc(COC(=O)c2ccc(-c3nnc(-c4ccccc4)o3)cc2)o1 | inactive: > 76.9 µM |
| Cn1nccc1C(=O)Nn1cnnc1 | inactive: > 76.9 µM |
| CC1CCN(S(=O)(=O)c2cc(Br)cc(C(=O)NC3=NCCS3)c2)CC1 | inactive: > 76.9 µM |
| COc1cccc(NC(=O)C2CCN(S(C)(=O)=O)CC2)c1 | inactive: > 76.9 µM |
| Cc1cccc(OCCSc2nnc(-c3ccoc3C)n2C)c1 | inactive: > 76.9 µM |
| COc1ccc(Cl)c(NC(=O)NCCN2CCN(c3ccccc3)CC2)c1 | inactive: > 76.9 µM |
| COCc1nnc(SCC(=O)NC(C)c2ccccc2)n1-c1ccccc1 (stereo not drawn) | inactive: > 76.9 µM |
| COCCCNC(CC(=O)Nc1ccc(OC)cc1OC)C(=O)O (stereo not drawn) | inactive: > 76.9 µM |
| O=C(CSc1nnc(-c2ccc3c(c2)OCCO3)o1)NC1CCCCC1 | inactive: > 76.9 µM |
| CCOC(=O)C1CC=C(Cl)CC1C(=O)Nc1nccs1 (stereo not drawn) | inactive: > 76.9 µM |
| N#CCCSc1ccccc1NC(=O)c1ccc(S(=O)(=O)N2CCCC2)cc1 | inactive: > 76.9 µM |
| Cc1cc(NC(=O)CN2CCN(c3ncccn3)CC2)no1 | inactive: > 76.9 µM |
| Cn1c(C(C#N)C(=O)c2ccco2)nc2ccccc21 (stereo not drawn) | inactive: > 76.9 µM |
| Clc1ccc(OCc2nnc(SCc3nnc(-c4ccccc4)o3)o2)c(Cl)c1 | inactive: > 76.9 µM |
| COc1cc2[nH]c(=S)n(C3CCCC3)c(=O)c2cc1OC | inactive: > 76.9 µM |
| Cc1occc1C(=O)Nc1cccc2ccccc12 | inactive: > 76.9 µM |
| COc1ccccc1C(=O)N1CCN(CCc2ccccc2)CC1 | inactive: > 76.9 µM |
| CCOc1ccc(N2C(=O)CC(N(O)c3ccccc3)C2=O)cc1 (stereo not drawn) | inactive: > 76.9 µM |
| Cc1ccc2c(COn3nnc4ccc(S(=O)(=O)N(C)C)cc43)cc(=O)oc2c1C | active: 10.6 µM |

| Structure (SMILES) | Potency |
| --- | --- |
| COc1ccc(Cn2c3nc4ccccc4nc3c3c(=O)n(Cc4ccco4)c(C)nc32)cc1 | inactive: > 76.9 µM |
| COCc1nnc(NC(=O)c2ccc(NC(C)=O)cc2)s1 | active: 6.81 µM |
| O=C(O)C1CSC2(CCN(Cc3ccccc3)CC2)N1 (stereo not drawn) | inactive: > 76.9 µM |
| CCC(=O)c1ccc(N2CCN(C(=O)c3ccc(Br)cc3)CC2)c(F)c1 | inactive: > 76.9 µM |
| COc1cc(C2=NOC(C(=O)N3CCCCCC3)C2)cc(OC)c1OC (stereo not drawn) | inactive: > 76.9 µM |
| Clc1ncn(C23CC4CC(CC(C4)C2)C3)n1 | inactive: > 76.9 µM |
| CCSc1nnc(NC(=O)CSc2nccn2-c2cc(C)cc(C)c2)s1 | inactive: > 76.9 µM |
| O=C1c2oc3ccccc3c(=O)c2C(c2cccs2)N1CCCN1CCOCC1 (stereo not drawn) | inactive: > 76.9 µM |
| CCCCNC(=O)Nc1cnn(CC)c1C(N)=O | inactive: > 76.9 µM |
| O=C(O)CCC(NC(=O)OCc1ccccc1)C(=O)O (stereo not drawn) | inactive: > 76.9 µM |
| COc1ccccc1Nc1nc2c(s1)CCC2 | inactive: > 76.9 µM |
| CCS(=O)(=O)N1CCCC(C(=O)NC2CCCCC2C)C1 (stereo not drawn) | inactive: > 76.9 µM |
| CCc1nc(C)ccc1OCC(=O)O | inactive: > 76.9 µM |
| Cc1sc2ncn(CCn3cnc4sc(C)c(C)c4c3=O)c(=O)c2c1C | inactive: > 76.9 µM |
| CC(Oc1ccccc1Br)C(=O)N1CCc2ccccc21 (stereo not drawn) | inactive: > 76.9 µM |
| O=C(COC(=O)c1cccnc1)Nc1cccc(Cl)c1 | inactive: > 76.9 µM |
| CCN(CC)S(=O)(=O)c1ccc(F)cc1 | inactive: > 76.9 µM |
| COC(=O)c1cc(NC(=O)c2c(Cl)nc3sccn23)cc(C(=O)OC)c1 | inactive: > 76.9 µM |
| O=C(O)C1CC(=O)N(Cc2cccnc2)C1 (stereo not drawn) | inactive: > 76.9 µM |
| CCC(c1nnnn1CCOC)N1CCN(C(=O)c2ccco2)CC1 (stereo not drawn) | inactive: > 76.9 µM |
| COc1ccc(CCn2nnnc2C(c2ccccc2)N2CCN(C)CC2)cc1OC (stereo not drawn) | inactive: > 76.9 µM |
| CN(C)c1ccc(P(=O)(OCc2ccccc2)C(O)c2ccncc2)cc1 (stereo not drawn) | inactive: > 76.9 µM |
| O=C(Oc1ccc(-n2cnnn2)cc1)c1ccco1 | inactive: > 76.9 µM |
| O=C(Nc1ccc(N2CCOCC2)cc1)C1CCN(S(=O)(=O)Cc2ccccc2)CC1 | inactive: > 76.9 µM |

| Structure (SMILES) | Potency |
| --- | --- |
| Cc1ccccc1CN1CCN(CC(=O)NCc2ccc3c(c2)OCO3)C1=O | inactive: > 76.9 µM |
| CCN(CC)C(=O)CSc1nnc(CCCCCNC(=O)OC(C)(C)C)o1 | inactive: > 76.9 µM |
| CCOCCOC(=O)C1=C(C)N(C)C(=O)NC1c1cc(Cl)c(O)c(OC)c1 (stereo not drawn) | inactive: > 76.9 µM |
| Cc1cc(C)n(-c2nc3ccccc3nc2N2CCN(S(=O)(=O)c3ccc(F)c(C)c3)CC2)n1 | inactive: > 76.9 µM |
| Cc1cc(=O)oc2cc(OCC(=O)N3CCCC(C)C3)ccc12 (stereo not drawn) | inactive: > 76.9 µM |
| O=C1N(CC(=O)N2CCc3ccccc32)CCN1Cc1ccc(Cl)cc1 | inactive: > 76.9 µM |
| O=C(NCc1ccccc1)c1cc(=O)nc2sc(-c3ccccc3)nn12 | inactive: > 76.9 µM |
| Cc1nc(=O)cc(-c2ccccc2)n1-c1ccccc1 | inactive: > 76.9 µM |
| Cc1cc(C)nc(SCc2nnc(SCC(=O)Nc3ccc(Cl)c(C(F)(F)F)c3)o2)n1 | inactive: > 76.9 µM |
| Brc1cccc(/C=N\n2cnnc2)c1 | inactive: > 76.9 µM |
| Cc1ccc(-c2cc3nc(C)cc(NCc4ccco4)n3n2)cc1 | inactive: > 76.9 µM |
| OCC#CCSc1nnc(-c2ccncc2)o1 | inactive: > 76.9 µM |
| COc1ccc2cnn(-c3ccccc3)c(=O)c2c1OC | inactive: > 76.9 µM |
| C=CCN1C(=O)C(CC(=O)O)SC1=Nc1c(C)n(C)n(-c2ccccc2)c1=O (stereo not drawn) | inactive: > 76.9 µM |
| Nc1nnc(Cc2ccc(Cl)cc2)s1 | inactive: > 76.9 µM |
| O=c1oc2ccccc2cc1-c1nnc(-c2cccc(Br)c2)o1 | inactive: > 76.9 µM |
| O=S(=O)(NCc1ccccc1)c1cnc[nH]1 | inactive: > 76.9 µM |
| Oc1ccc(C(=S)N2CCCCC2)cc1Cl | inactive: > 76.9 µM |
| Cc1ccsc1C(C(=O)NC1CCCCC1)N(C(=O)Cc1cccs1)C1CC1 (stereo not drawn) | inactive: > 76.9 µM |
| O=C(CCCNS(=O)(=O)c1cccc2nsnc12)NC1CCCCC1 | inactive: > 76.9 µM |
| O=C(CSc1nnc(-c2cccnc2)n1CCc1ccccc1)N1CCCCC1 | inactive: > 76.9 µM |
| COc1ccc(Nc2cc(C(=O)NCCCN3CCN(C)CC3)c3ccccc3n2)cc1 | inactive: > 76.9 µM |
| Cc1cn(C2OC(COC(=O)c3ccccc3)C(O)C2O)c(=O)[nH]c1=O (stereo not drawn) | inactive: > 76.9 µM |
| CC12CC3CC(C)(C1)CC(C(=O)Nc1nn[nH]n1)(C3)C2 | inactive: > 76.9 µM |

| Structure (SMILES) | Potency |
| --- | --- |
| O=C(Cn1c(=O)oc2ccccc21)Nc1ccc(S(=O)(=O)N2CCCCC2)cc1 | inactive: > 76.9 µM |
| Nc1c(C(=O)Nc2ccccc2)sc2nc(-c3ccco3)ccc12 | inactive: > 76.9 µM |
| O=C(NC1CCCCC1)c1ccc(N2CCCC2=O)cc1 | inactive: > 76.9 µM |
| CC1(c2cccs2)CC(c2cccs2)=C(C#N)C(=O)N1 (stereo not drawn) | inactive: > 76.9 µM |
| C#CC(C)(CC)NC(=O)Cn1nnc(-c2ccc(S(C)(=O)=O)cc2)n1 (stereo not drawn) | inactive: > 76.9 µM |
| Cc1ccc(C(=O)Nc2ccc3c(c2)OCO3)cc1S(=O)(=O)N1CCCCC1 | inactive: > 76.9 µM |
| CCCCNC(=O)COC(=O)c1cc2c(C)nn(-c3ccccc3)c2s1 | inactive: > 76.9 µM |
| CCOC(=O)C1CCN(C(=O)c2ccc(Cl)c(S(=O)(=O)N3CCOCC3)c2)CC1 | inactive: > 76.9 µM |
| O=C(Cn1cnc2c(cnn2-c2ccc(F)cc2)c1=O)NCc1ccco1 | inactive: > 76.9 µM |
| CCOC(=O)C1=C(N)N2C(=O)C(C)SC2=C(C(=O)OC)C1c1ccccc1OC (stereo not drawn) | inactive: > 76.9 µM |
| COc1ccccc1-n1c(CNC(=O)c2ccc(S(=O)(=O)N3CCOCC3)cc2)n[nH]c1=S | inactive: > 76.9 µM |
| CN(C)C(=O)NCc1ccc(S(N)(=O)=O)cc1 | inactive: > 76.9 µM |
| CCCNC(=O)c1c(N)n(-c2cccc(OC)c2)c2nc3ccccc3nc12 | inactive: > 76.9 µM |
| COc1ccc(CN/C=C2\CCCCC2=O)cc1 | inactive: > 76.9 µM |
| O=C1CC(C(=O)NC2CCCCC2)C(c2ccccc2)O1 (stereo not drawn) | inactive: > 76.9 µM |
| O=C(Nn1c(C2CCC2)nc2ccccc2c1=O)C1CCC1 | inactive: > 76.9 µM |
| O=C(O)C1CC(c2cccc(Br)c2)=NO1 (stereo not drawn) | inactive: > 76.9 µM |
| CCCOc1ccccc1C1CC(=O)Nc2cc3c(cc21)OCCO3 (stereo not drawn) | inactive: > 76.9 µM |
| CC(O)CCC(=O)NCCNC(=O)CCC(C)O (stereo not drawn) | inactive: > 76.9 µM |
| CCCn1c(SCc2cc(=O)oc3ccc4ccccc4c23)n[nH]c1=O | inactive: > 76.9 µM |
| CCOc1cc2c(C#N)c(N3CCOCC3)nc(N)c2c(N)n1 | inactive: > 76.9 µM |
